# Source: article PMC10668032
# This is one part of the list. At the low end of the ranking the order means little.
# Target: SIX1 homeodomain (reference allele) (UniProt Q15475)
# Assay: universal protein binding microarray
# Conditions: Universal all-10-mer PBM (8x60K, AMADID 030236), 300 nM GST-tagged protein, Alexa Fluor 488 anti-GST; buffer, salt, pH and temperature not stated; high values mean tight binding; most listed sequences are background and not binding sites; double strand, one strand shown
row,Sequence,binding signal
1,GCTATGTA,-0.109 E-score
2,GCGTTAGA,0.197 E-score
3,CAGAGCTC,-0.283 E-score
4,GCAATATA,0.16 E-score
5,ATACCGTA,0.391 E-score
6,GTCATCTA,0.208 E-score
7,AGACGGAA,0.00724 E-score
8,AGGATCAC,0.435 E-score
9,CTTTAAGC,-0.014 E-score
10,AGTCTAAC,-0.183 E-score
11,ACACCTAC,0.191 E-score
12,CTGGCGGA,-0.0557 E-score
13,CACGGGGC,-0.11 E-score
14,TGAGGCAA,-0.0572 E-score
15,CATGACGA,0.141 E-score
16,TCCAAGGA,0.0545 E-score
17,GCCCAAGC,-0.0718 E-score
18,CGACTACC,-0.126 E-score
19,ACCACACG,0.0658 E-score
20,GGGATGCA,1e-05 E-score
21,CTCGATCC,0.325 E-score
22,GACTTTTA,-0.173 E-score
23,CTACTGCC,-0.16 E-score
24,CGGGCAGA,0.117 E-score
25,GTAGAGGA,0.0143 E-score

row,Sequence,binding signal
1,ACCGAAGA,-0.104 E-score
2,ACATCGTG,-0.0141 E-score
3,AATCTAGC,0.0238 E-score
4,GCAAGGGA,-0.102 E-score
5,CTAAGCAG,-0.124 E-score
6,CATAGAGA,-0.0866 E-score
7,TCGAATCA,-0.126 E-score
8,GGAGCCCC,-0.023 E-score
9,GCGCAAGA,-0.15 E-score
10,CCCTACCA,-0.0974 E-score
11,AGCTCCCA,-0.0789 E-score
12,GACACAAC,-0.158 E-score
13,GCCTATGA,-0.0282 E-score
14,CCCGTGCA,-0.0797 E-score
15,CTACTCGA,0.0499 E-score
16,TCATTCCA,0.0032 E-score
17,ATCAAATG,0.137 E-score
18,AGGCTACA,-0.133 E-score
19,AAATCTTC,-0.251 E-score
20,CACACCAC,0.206 E-score
21,CAGGCGGA,0.0619 E-score
22,GTCGGATA,0.407 E-score
23,ACATTCTG,-0.205 E-score
24,AATATGTG,0.197 E-score
25,CACGGAAG,0.0307 E-score

row,Sequence,binding signal
1,GCGTCCTA,-0.113 E-score
2,CTCTACGC,-0.122 E-score
3,CCTTTATA,-0.103 E-score
4,GGTGATGA,0.191 E-score
5,AGGGGTTC,-0.0504 E-score
6,ACAATTGC,-0.0574 E-score
7,CGTTGACC,-0.171 E-score
8,CACTCTTA,-0.0795 E-score
9,AGGAAAAG,-0.159 E-score
10,GAGAATAA,-0.106 E-score
11,ATCTGTTG,0.06 E-score
12,CGATCTAC,0.2 E-score
13,AATGATAC,0.467 E-score
14,ATTTATAG,-0.186 E-score
15,GAAGGTGC,-0.0328 E-score
16,GAGGCCTA,-0.173 E-score
17,TAAATCAA,-0.0113 E-score
18,GTCGTTAA,-0.142 E-score
19,GCAGCACA,-0.12 E-score
20,CGACGGAA,-0.193 E-score
21,CCCTTCCA,-0.139 E-score
22,CCTACCGC,-0.133 E-score
23,CCTGAGCC,0.0587 E-score
24,AAAGATAG,0.0121 E-score
25,AGTATTGC,0.129 E-score

row,Sequence,binding signal
1,GGAGGAGA,0.11 E-score
2,ATGCGCCA,-0.204 E-score
3,TCTGCAGA,-0.0386 E-score
4,ACCTGAGC,-0.0241 E-score
5,CGGCACAC,0.0516 E-score
6,CGCAAGGA,0.057 E-score
7,TACCTTAA,-0.00198 E-score
8,CAAACTGA,-0.152 E-score
9,AATCCTTA,0.041 E-score
10,GCCGCTTA,-0.193 E-score
11,ACGATAGA,0.106 E-score
12,AATATTAC,-0.0457 E-score
13,GACGGTGA,-0.0436 E-score
14,ATGTCGCC,-0.0613 E-score
15,CCCTACAG,-0.018 E-score
16,ATGGCCAA,-0.209 E-score
17,GCGGGAGC,-0.246 E-score
18,GCACTGAA,-0.342 E-score
19,ACCATCAC,0.0188 E-score
20,CGCAAATA,-0.178 E-score
21,CTCCGAAC,-0.0607 E-score
22,CATTTCGA,-0.113 E-score
23,ACTTGGTA,0.021 E-score
24,CCCAGGAC,0.13 E-score
25,CATGACGG,-0.0832 E-score

row,Sequence,binding signal
1,AAAAGCAT,-0.221 E-score
2,CCGTATTC,0.177 E-score
3,CGGATAGC,0.382 E-score
4,AAACGTAT,0.262 E-score
5,CCTAAGGC,-0.18 E-score
6,GAATACTA,0.14 E-score
7,GAAAGGAC,-0.0979 E-score
8,AAGAGGCG,-0.298 E-score
9,CAACCATA,-0.011 E-score
10,CTCGCCCC,0.0946 E-score
11,AAACATGG,-0.0271 E-score
12,CATATAGG,0.121 E-score
13,ATCAACAC,0.267 E-score
14,CCCGAGGA,0.125 E-score
15,ATGTTAAT,-0.023 E-score
16,CTATCTAC,0.24 E-score
17,CGTCCTGA,-0.0325 E-score
18,GTGAGGGA,0.125 E-score
19,CCGTATAG,0.239 E-score
20,TCACTTCA,-0.0996 E-score
21,TGAGGCCA,0.00241 E-score
22,AGAGCCTC,-0.17 E-score
23,GTGTCTAA,0.116 E-score
24,AAAACCGA,-0.00205 E-score
25,GCGGCAAA,-0.0328 E-score

row,Sequence,binding signal
1,AGCATGGA,-0.0205 E-score
2,ATGAGGTA,0.0879 E-score
3,TATATGGA,0.207 E-score
4,GCCTGGCC,-0.315 E-score
5,CAGGGGCA,-0.0236 E-score
6,ATCGGTCA,0.0978 E-score
7,GGCCCAAC,-0.0844 E-score
8,AATTAAAG,-0.255 E-score
9,TACTACCA,0.0906 E-score
10,CTTGGCTC,-0.181 E-score
11,GCCATCTA,-0.126 E-score
12,CGCGATCC,0.391 E-score
13,ATTGTTAC,-0.0151 E-score
14,ACCCATTG,0.0832 E-score
15,GAGATTCC,0.13 E-score
16,ACGCGGCT,-0.195 E-score
17,AAATCCCA,-0.0283 E-score
18,ATCTATGC,0.261 E-score
19,ACCCCGAA,0.0891 E-score
20,AGACACCG,0.323 E-score
21,AGTCAGAC,-0.0643 E-score
22,AGCAAATC,-0.093 E-score
23,TCGTAGAA,0.0606 E-score
24,ACCTTGAT,0.181 E-score
25,GTACCGGA,0.0429 E-score

row,Sequence,binding signal
1,ATATTTGA,0.173 E-score
2,CGTCTTCC,0.0555 E-score
3,CCTCCCTC,0.025 E-score
4,ATCACACC,0.341 E-score
5,GGTATAGA,0.301 E-score
6,AGTCTCTC,-0.248 E-score
7,CTCTATGA,-0.0356 E-score
8,ACGGCTAC,0.116 E-score
9,TAGCTAGA,-0.0245 E-score
10,AGAGTATG,-0.191 E-score
11,AGTGATCG,0.25 E-score
12,ATTGTGCG,-0.05 E-score
13,AACAGGCT,-0.0147 E-score
14,GCTAAGCA,-0.159 E-score
15,CGGGCTAG,-0.044 E-score
16,GAAGTGTA,-0.147 E-score
17,AGGATCGA,0.289 E-score
18,AACGCGGT,0.0348 E-score
19,AGTGTAGG,0.0488 E-score
20,AGCGATGA,-0.0399 E-score
21,ATAAGCAT,0.00297 E-score
22,CCGCATTC,-0.233 E-score
